Results as given in PubChem BioAssay AID686979 (National Center for Advancing Translational Sciences (NCATS), 2013).
The whole screen tested about 420,000 compounds, of which about 50,000 (12%) were called active. Inconclusive means that the source gave no clear call. Such entries were picked first, then a sample of the others. The call rests on the fitted dose curve; in most records, active means well fitted inhibition curve with a large enough effect; inconclusive means small, poorly fitted or top-dose-only effect; inactive means flat fitted curve, though single readings scatter. Potencies of inconclusive entries are left out as doubtful fits.

assay: qHTS for Inhibitors of human tyrosyl-DNA phosphodiesterase 1 (TDP1): qHTS in cells in presence of CPT; conditions: chicken DT40 Tdp1-/-;hTDP1 cells + 20 nM CPT, ATP luminescence, 48 h; activity change, negative = growth inhibition: at 46.2 µM (top of the series) unless noted; further: nearly all actives have a fitted effect of over 55% in size
Procedure, shortened: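 Chicken DT40 Tdp1-/- cells stably complemented with human TDP1 were seeded at 400 cells/well in medium containing 20 nM camptothecin, exposed to pin-transferred compounds, and grown at 37 °C for at least 48 hr. Viability was read as ATP luminescence.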
On the % scale 0 is the no-effect control and ±100 the full control effect; potency means the concentration at half of the fitted maximal effect; tags describe the fitted curve by direction and shape.

SMILES | Potency | activity change, negative = growth inhibition
Cc1ccccc1-n1c(-c2csc(C)c2C)n[nH]c1=S | inconclusive [inhibitor, single point] | –
O=c1[nH]c(NCc2ccco2)nnc1Cc1ccccc1Cl | active: 6.51 µM | –
COC(=O)[C@@]12C[C@@H](CC(=O)NCc3cccc(C(F)(F)F)c3)C(=O)N(CCc3ccc(OC)c(OC)c3)C1=CCC(C)(C)C2 | active: 9.2 µM | –
COCCN1Cc2cccc(C(=O)Nc3ccc(C)cc3)c2C1=O | – | inactive: -28.2%
COc1ccc(S(=O)(=O)N(C)c2ccc(C(=O)N3CCN(c4ccccc4)CC3)cc2)cc1OC | active: 14.6 µM | –
CC(C)(C)OC(=O)N1CCC(c2c(C(=O)NCCc3ccsc3)cnn2-c2ccccc2Cl)CC1 | inconclusive [inhibitor, single point] | –
O=[N+]([O-])c1ccc(Oc2ccc(S(=O)(=O)N3CCCCC3)cc2)cc1 | active: 16.4 µM | –
CCOc1ccc(N2C(=O)CS(=O)(=O)C23C(=O)N(Cc2cccc(Cl)c2)c2ccccc23)cc1 (configuration not stated) | inconclusive [inhibitor, partial curve, poor fit] | –
Clc1ccc(-c2nnc3n2-c2ccccc2SC3)cc1 | – | inactive: -0.469%
CCN1CCc2nc3ccccc3c(C(=O)Nc3ccc(C#N)cc3)c2C1 | inconclusive [inhibitor, single point] | –
CCOC(=O)c1c(C)[nH]c(C)c1S(=O)(=O)N(C)CC(=O)N1CCN(c2ccc(Cl)cc2)CC1 | active: 14.6 µM | –
Cc1ccc(CN(C(=O)Cc2cccs2)C(C(=O)NC2CCCC2)c2ccncc2)cc1 (configuration not stated) | – | inconclusive: -30.7% [inhibitor]
COc1ccc(CNCc2ccccc2C(F)(F)F)cc1 | – | inactive: -11.8%
COC(=O)C1=C(C)N=C2SCCC(=O)N2C1c1ccc(OCc2ccccc2)c(OC)c1 (configuration not stated) | – | inconclusive: -33.5% [inhibitor]
CCOc1ccc(CN2CCc3nc(N4CCN(c5ncccn5)CC4)ncc3C2)cc1OC | active: 20.6 µM | –
Cc1cc(C)c2c(=O)n3c(nc2c1)C(C)NC(=O)c1cccnc1-3 (configuration not stated) | – | inactive: 12.4%
COc1ccc(Nc2nc(S(=O)(=O)c3ccc(C)cc3)c(Cl)s2)cc1 | inconclusive [inhibitor, single point] | –
C(=N/Nc1cc(N2CCOCC2)nc(N2CCOCC2)n1)/c1ccccc1 | inconclusive [inhibitor, single point] | –
NC(=O)C1C(=O)c2ccccc2C1(C[N+](=O)[O-])c1ccccc1 (configuration not stated) | inconclusive [inhibitor, single point] | –
C=CCn1c(SCC(=O)NCC2CCCO2)nnc1-c1ccncc1 (configuration not stated) | – | inactive: -5.43%
Cn1nc(-c2ccccc2)c(-c2nc(-c3cccc(C(F)(F)F)c3)no2)c1Cl | inconclusive [inhibitor, single point] | –
CCOC(=O)c1ccccc1NC(=O)c1ccccc1NS(C)(=O)=O | inconclusive [inhibitor, single point] | –
Cc1cc(C)c2c(c1)SC1=NC(c3ccccc3)(C(F)(F)F)NC(=O)N12 (configuration not stated) | inconclusive [inhibitor, single point] | –
CCCCCC1C(=O)CCC1CC(=O)OC (configuration not stated) | inactive | –

SMILES | Potency | activity change, negative = growth inhibition
O=Cc1ccc(OCC(=O)Nc2ccccc2-c2ccccc2)cc1 | inconclusive [inhibitor, single point] | –
CCOC(=O)c1c(C)[nH]c(C)c1S(=O)(=O)NCC1CCN(Cc2cccc(F)c2)CC1 | – | inactive: -2.88%
CC(O)Cn1nc([N+](=O)[O-])nc1N (configuration not stated) | – | inactive: 4.03%
COc1ccc(S(=O)(=O)NCCc2nnc3ccc(SCC(=O)Nc4cc(C)cc(C)c4)nn23)cc1 | active: 20.6 µM | –
CCN(CC)CCN(C(=O)/C=C/c1cccs1)c1nc2ccc(Cl)cc2s1 | inconclusive [inhibitor, single point] | –
O=C(CCCSc1ccccc1)Nc1ccc(Cl)c(S(=O)(=O)N2CCOCC2)c1 | active: 16.4 µM | –
Cc1ccc(C(C)C)c(OCCCN2CCc3ccccc3C2)c1 | inconclusive [inhibitor, single point] | –
Cc1ccc(-c2nc3c(c(SCC(=O)N(C)c4ccccc4)n2)Cc2c(CO)cnc(C)c2O3)cc1 | inconclusive [inhibitor, single point] | –
CCOc1ccc2[nH]c3c(N4CCc5ccccc5C4)ncnc3c2c1 | active: 14.6 µM | –
Cc1cc(C(=O)CCC(=O)N2CCN(S(=O)(=O)c3ccccc3)CC2)c(C)s1 | inconclusive [inhibitor, partial curve, poor fit] | –
CCOc1ccc(N(CC(=O)NC2CCCC2)C(=O)CSc2nnc(COc3ccccc3)o2)cc1 | active: 20.6 µM | –
COc1ccc(CNC(=O)Nc2cccc(C(F)(F)F)c2)cc1OC | inconclusive [inhibitor, single point] | –
O=C(Nc1cccc(OCc2cc(=O)n3ccccc3n2)c1)c1ccccc1Br | inconclusive [inhibitor, single point] | –
CCC1CN(C(=O)NCc2ccccc2)c2cc(Cl)ccc2O1 (configuration not stated) | inconclusive [inhibitor, single point] | inconclusive: -31.5% [inhibitor]
CN(C)c1ccc(C(=O)C(O)c2ccccc2)cc1 (configuration not stated) | – | inactive: 10.2%
Cc1ccc2cccc(S(=O)(=O)NC3CCS(=O)(=O)C3)c2n1 (configuration not stated) | – | inactive: -16.8%
COc1ccc(S(=O)(=O)Nc2ccccc2C(=O)NCc2cccnc2)cc1 | – | inactive: -7.06%
COc1ccc(NC(=O)CC2C(=O)N(C)C(=S)N2CCc2ccccc2)cc1 (configuration not stated) | inconclusive [inhibitor, single point] | –
COc1ccc(OC)c(N2CC(O)=C(c3nc4ccccc4s3)C2=N)c1 | inconclusive [inhibitor, single point] | –
COc1ccc(C(=O)Nn2c(SCc3ccc([N+](=O)[O-])cc3)nc3ccccc3c2=O)cc1 | inconclusive [inhibitor, partial curve] | –
CCOc1ccc(CCN2C(=S)N([C@@H](Cc3ccccc3)CN3CCC[C@@H]3CN3C(=S)NC[C@@H]3Cc3ccc(O)cc3)C[C@@H]2CC(C)C)cc1 | active: 9.2 µM | –
CCCCCCCC1CC(/C(C)=N/NC(N)=O)OC1=O (configuration not stated) | active: 18.4 µM | –
O=C(Cc1coc2cc3c(cc12)CCC3)OCC(=O)N1CCCC1=O | – | inactive: 2.01%
COc1ccc(CN2CCC2(C)C(=O)NCCc2c[nH]c3ccccc23)c2ccccc12 (configuration not stated) | inconclusive [inhibitor, single point] | –

SMILES | Potency | activity change, negative = growth inhibition
CC1CN(S(=O)(=O)c2cccc(C(=O)Nc3ccccc3N3CCCCC3)c2)CC(C)O1 (configuration not stated) | active: 16.4 µM | –
O=C(NCCc1cccc(Cl)c1)c1cc([N+](=O)[O-])ccc1Cl | – | inactive: 2.7%
COc1ccccc1CCNC(=O)C(=O)NCC(c1ccco1)S(=O)(=O)c1ccc(F)cc1 (configuration not stated) | active: 16.4 µM | –
COc1cc(C(=O)/C=C/c2cccnc2)ccc1O | inconclusive [inhibitor, single point] | –
C=CCn1c(COc2ccccc2)nnc1SCC(=O)Nc1ccc2c(c1)OCCO2 | inconclusive [inhibitor, single point] | –
C[C@@H]1COC(=O)[C@H](Cc2ccc(F)cc2)C/C=C\C[C@@H](CC(=O)NCCO)C(=O)N1 | – | inactive: -0.57%
COc1ccc(-c2ccc(CN3C(C(C)C)C(=O)N(Cc4cn(CC5CCCCC5)nn4)CCS3(=O)=O)cc2)cc1 (configuration not stated) | active: 14.6 µM | –
CCN(CC)S(=O)(=O)c1ccc(-c2cn3ccccc3n2)cc1 | inconclusive [inhibitor, partial curve] | –
O=C(NCc1ccc2c(c1)CCN2C(=O)c1ccncc1)c1ccccc1Cl | – | inactive: -26.2%
Cc1sc2nc(CN3CCOCC3)nc(N3CCN(S(=O)(=O)c4ccccc4)CC3)c2c1C | inconclusive [inhibitor, single point] | –
Cc1oc2ccc(O)cc2c1C(=O)c1ccc(Br)cc1 | – | inactive: -24.2%
O=C(Nc1ccccc1N1CCCCC1)c1cccc(OC(F)F)c1 | inconclusive [inhibitor, single point] | –
CN(Cc1ccccc1)c1nc(N)c([N+](=O)[O-])c(NCc2ccccc2)n1 | inconclusive [inhibitor, single point] | –
COc1ccc(CNC(=O)COc2cc3c(c4oc(=O)cc(C)c24)CCC(C)(C)O3)cc1OC | active: 20.6 µM | –
O=C(CCCn1c(=O)[nH]c2ccccc2c1=O)NCCSCc1ccccc1 | – | inactive: -21.1%
O=C(OCc1ccccc1F)c1cc2ccccc2cc1O | – | inactive: 15.8%
CCSc1cc(N2CCOCC2)nc(-c2ccc(Cl)cc2)n1 | inconclusive [inhibitor, single point] | –
O=C(CN1CCN(c2ccccc2F)CC1)Nc1ccccc1F | inconclusive [inhibitor, single point] | –
Cc1ccccc1CSCCNC(=O)c1ccc(Cl)c(S(=O)(=O)N2CCOCC2)c1 | inconclusive [inhibitor, single point] | –
CC1=C(C(=O)Nc2ccc(F)cc2)C(c2ccc(C)o2)C2=C(CC(C)(C)CC2=O)N1 (configuration not stated) | – | inactive: -17.3%
CCN1CCN(c2nc(-c3ccccn3)nc3ccccc23)CC1 | inconclusive [inhibitor, single point] | –
OC(COc1ccccc1CNCc1cccnc1)CN1CCc2ccccc2C1 (configuration not stated) | inconclusive [inhibitor, single point] | –
COc1ccc(C(=O)C2CCCN(C(=O)c3ccoc3C)C2)cc1F (configuration not stated) | inconclusive [inhibitor, single point] | –
